The list shows a part of the results. Single values of this set are uncertain. Values with irradiation are relative to irradiated vehicle.
The compounds below were run on A549-Dual (assay: NF-kB reporter (SEAP) activity, viability-corrected, relative to vehicle (fold change vs vehicle); higher = more activation of STING-IRF / NF-kB immune response reporter). Conditions: 10 µM; irradiation: 8 Gy/4 fr.
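Note: viability correction based on the alamar blue assay, with concentrations leaving 10% survival or less dropped.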

Compound | NF-kB reporter
CCOC(=O)C1=C(C)NC(C)=C(C(=O)OCC)C1c1ccccc1/C=C/C(=O)OC(C)(C)C [Lacidipine] | 0.419
C=C1C(=O)OC2/C=C(\C)CC/C=C(\C)CCC12 (centres undefined) [Costunolide] | 0.592
COC(=O)CCc1ccc(OCC(O)CNC(C)C)cc1.Cl (centres undefined) [Esmolol HCl] | 1.01
CC(=O)NC(CC(C)C)C(=O)O (centres undefined) [Acetylleucine] | 0.962
COc1ccc(CN2CCN(C(c3ccc(F)cc3)c3ccc(F)cc3)CC2)c(OC)c1OC.Cl.Cl [Lomerizine 2HCl] | 0.745
CCCCCCCCCCCC(=O)O [Lauric Acid] | 0.785
CC(=O)OC/C=C/c1ccccc1 [Cinnamyl acetate] | 1.44
NC12CC3CC(CC(C3)C1)C2 [Amantadine] | 0.746
NCCC(=O)O [β-Alanine] | 0.535
N[C@H](CO)C(=O)O [(R)-Serine] | 1.28
CC(/C=C1\SC(=S)N(CC(=O)O)C1=O)=C\c1ccccc1 [Epalrestat] | 0.804
CC(COc1ccccc1)N(CCCl)Cc1ccccc1.Cl (centres undefined) [Phenoxybenzamine HCl] | 0.729
C=C=CCNC(=O)c1ccc(F)cc1 [Diastase] | 0.869
Cc1nnc(NS(=O)(=O)c2ccc(N)cc2)s1 [Sulfamethizole] | 0.698
O=C(O)CCCCCCCCC(=O)O [Sebacic acid] | 0.826
CC1OC1P(=O)(O)O.NC(CO)(CO)CO (centres undefined) [Fosfomycin Tromethamine] | 1.21
COc1ccccc1OCC(O)COC(N)=O (centres undefined) [Methocarbamol] | 1.13
COC1/C=C/OC2(C)Oc3c(C)c(O)c4c(O)c(c(/C=N/N5CCN(C6CCCC6)CC5)c(O)c4c3C2=O)NC(=O)/C(C)=C/C=C/C(C)C(O)C(C)C(O)C(C)C(OC(C)=O)C1C (stereo in doubt) [Rifapentine] | 0.559
OCC(O)C(O)C(O)C(O)CO (centres undefined) [Sorbitol] | 0.679
CC(=O)O.CC(N)C(=O)NCC(=O)NC1CSSCC(C(=O)O)NC(=O)C(CO)NC(=O)C(C(C)O)NC(=O)C(Cc2ccccc2)NC(=O)C(C(C)O)NC(=O)C(CCCCN)NC(=O)C(Cc2c[nH]c3ccccc23)NC(=O)C(Cc2ccccc2)NC(=O)C(Cc2ccccc2)NC(=O)C(CC(N)=O)NC(=O)C(CCCCN)NC1=O (centres undefined) [Somatostatin Acetate] | 1.03

Compound | NF-kB reporter
O=c1c(-c2ccc(O)cc2)coc2cc(OC3OC(CO)C(O)C(O)C3O)ccc12 (centres undefined) [Daidzin] | 0.886
C[n+]1cccc(C(=O)O)c1.[Cl-] [Trigonelline Hydrochloride] | 0.687
CCCN(CCc1cccs1)C1CCc2c(O)cccc2C1 (centres undefined) [Rotigotine] | 0.828
CCc1ccc(CCOc2ccc(CC3SC(=O)NC3=O)cc2)nc1.Cl (centres undefined) [Pioglitazone HCl] | 0.655
N#C/C(=C1/SCC(c2ccc(Cl)cc2Cl)S1)n1ccnc1 (centres undefined) [Luliconazole] | 0.819
Cc1cccc(CN2CCN(C(c3ccccc3)c3ccc(Cl)cc3)CC2)c1.Cl.Cl (centres undefined) [Meclizine 2HCl] | 0.74
O=c1ccc2ccc(O)cc2o1 [Umbelliferone] | 0.933
CN(C)C1C(O)=C(C(N)=O)C(=O)C2(O)C(O)=C3C(=O)c4c(O)cccc4C(C)(O)C3C(O)C12.O.O (centres undefined) [Oxytetracycline Dihydrate] | 0.728
CO/N=C(\C(=O)NC1C(=O)N2C(C(=O)[O-])=C(COC(C)=O)CSC12)c1csc(N)n1.[Na+] (centres undefined) [Cefotaxime sodium] | 0.852
Cc1cc(-n2c(=O)[nH]c(=O)n(C)c2=O)ccc1Oc1ccc(SC(F)(F)F)cc1 [Toltrazuril] | 0.884
CCOc1ccc2c(c1)C(C)=CC(C)(C)N2 [Ethoxyquin] | 0.914
O=C1c2cccc(O)c2C(=O)c2c(O)cccc21 [Danthron] | 0.772
O=C1OC2(c3ccc(O)cc3Oc3cc(O)ccc32)c2ccccc21 [Fluorescein] | 1.42
CCCCc1nc(C)c(CC(=S)N(C)C)c(=O)n1Cc1ccc(-c2ccccc2-c2nnn[nH]2)cc1 [Fimasartan] | 0.821
O=C(NCCN1CCOCC1)c1ccc(Cl)cc1 | 0.528
NC(=O)CC(N)C(=O)O.O (stereo not drawn) [L(+)-Asparagine monohydrate] | 0.719
CN(C)CC(c1ccc(O)cc1)C1(O)CCCCC1.O=C(O)CCC(=O)O (centres undefined) [Desvenlafaxine Succinate] | 0.94
COc1cc2ccc(=O)oc2cc1O [Scopoletin] | 0.794
COC(=O)NC(C(=O)N1CCCC1c1ncc(-c2ccc3c(c2)OC(c2ccccc2)n2c-3cc3cc(-c4cnc(C5CCCN5C(=O)C(NC(=O)OC)C(C)C)[nH]4)ccc32)[nH]1)C(C)C (centres undefined) [Elbasvir] | 0.94

— the supplement of paper PMC9174493
